Results from patent US20230278972A1, “SUBSTITUTED HALOALKYL SULFONANILIDE HERBICIDES” (FMC Corporation, priority 2020, published 2023).

Assays:
Settings in all cases: Flood, 250 g ai/ha; visual rating after 13 to 15 days; scale of 0 to 100 where 0 is no effect and 100 is complete control
[1] = test system: barnyardgrass (Echinochloa crus-galli); assay: Test B flooded paddy test, barnyardgrass
[2] = test system: sedge, umbrella (small-flower umbrella sedge, Cyperus difformis); assay: Test B flooded paddy test, sedge, umbrella
[3] = test system: ducksalad (Heteranthera limosa); assay: Test B flooded paddy test, ducksalad
rice (Oryza sativa) = assay: Test B flooded paddy test, rice

Row | SMILES | Plant response rating, Barnyardgrass [1] | Plant response rating, Sedge, Umbrella [2] | Plant response rating, Ducksalad [3] | Plant response rating, Rice (rice (Oryza sativa))
1 | CCC(C)C(=O)OCN(c1cc(C2=NOC3(CCCC3)C2)c(C)cc1C)S(=O)(=O)C(F)(F)F (centres unmarked) [Compound 151] | 85 | 65 | 35 | 10
2 | Cc1cc(C)c(N(COC(=O)CC(C)C)S(=O)(=O)C(F)(F)F)cc1C1=NOC2(CCCC2)C1 [Compound 152] | 95 | 70 | 35 | 0
3 | Cc1cc(Cl)c(NS(=O)(=O)C(F)(F)F)cc1C(=O)N1CCOCC1(C)C [Compound 153] | 15 | 65 | 70 | 25
4 | CCOC1CCCN(C(=O)c2cc(NS(=O)(=O)C(F)(F)F)c(C)cc2C)C1 (centres unmarked) [Compound 154] | 15 | 65 | 45 | 30
5 | Cc1cc(C)c(C(=O)N2CCCC(F)C2)cc1NS(=O)(=O)C(F)(F)F (centres unmarked) [Compound 155] | 90 | 85 | 75 | 75
6 | Cc1cc(C)c(N2CC3(CCOCC3)OC2=O)cc1NS(=O)(=O)C(F)(F)F [Compound 156] | 50 | 85 | 65 | 35
7 | Cc1cc(C)c(N(S(=O)(=O)C(F)(F)F)S(=O)(=O)C(F)(F)F)cc1N1CC2(CCOCC2)OC1=O [Compound 157] | 20 | 70 | 55 | 15
8 | Cc1cc(C)c(N(S(=O)(=O)C(F)(F)F)S(=O)(=O)C(F)(F)F)cc1C1=NOC2(CCCCCC2)C1 [Compound 158] | 35 | 90 | 70 | 35
9 | Cc1cc(C)c(C(=O)N2CCCOCC2)cc1NS(=O)(=O)C(F)(F)F [Compound 160] | 0 | 75 | 45 | 0
10 | Cc1cc(C)c(N(S(=O)(=O)C(F)(F)F)S(=O)(=O)C(F)(F)F)cc1C(=O)N1CCC(C#N)CC1 [Compound 161] | 90 | 90 | 70 | 35
11 | Cc1cc(C)c(C(=O)N2CCC(C#N)CC2)cc1NS(=O)(=O)C(F)(F)F [Compound 162] | 25 | 70 | 60 | 20
12 | Cc1cc(C)c(C2=NOC3(CCC(C)(C)CC3)C2)cc1NS(=O)(=O)C(F)(F)F [Compound 163] | 0 | 90 | 60 | 0
13 | Cc1cc(C)c(C2=NOC3CCCC23)cc1NS(=O)(=O)C(F)(F)F (centres unmarked) [Compound 164] | 90 | 95 | 85 | 0
14 | Cc1cc(C(F)(F)F)c(NS(=O)(=O)C(F)(F)F)cc1C(=O)N1CCCCC1 [Compound 165] | 20 | 95 | 75 | 30
15 | Cc1cc(C)c(C2=NOC3CCCC23)cc1NS(=O)(=O)C(F)(F)F (centres unmarked) [Compound 166] | 95 | 95 | 70 | 25
16 | Cc1cc(C)c(N(S(=O)(=O)C(F)(F)F)S(=O)(=O)C(F)(F)F)cc1C(=O)N(C)CC1CC1 [Compound 169] | 0 | 80 | 0 | 0
17 | Cc1cc(C)c(C2=NOC3(CCC(F)(F)CC3)C2)cc1NS(=O)(=O)C(F)(F)F [Compound 172] | 15 | 45 | 65 | 55
18 | Cc1c(C(=O)N2CCOCC2)cc(N(S(=O)(=O)C(F)(F)F)S(=O)(=O)C(F)(F)F)c(C)c1F [Compound 174] | 0 | 55 | 60 | 0
19 | COC1CCCN(C(=O)c2cc(NS(=O)(=O)C(F)(F)F)c(C)cc2C)C1 (centres unmarked) [Compound 175] | 0 | 85 | 70 | 0

Row | SMILES | Plant response rating, Barnyardgrass [1] | Plant response rating, Sedge, Umbrella [2] | Plant response rating, Ducksalad [3] | Plant response rating, Rice (rice (Oryza sativa))
20 | Cc1cc(C)c(C2=NOC3(CCSCC3)C2)cc1NS(=O)(=O)C(F)(F)F [Compound 176] | 30 | 65 | 60 | 0
21 | Cc1cc(C)c(C2=NOC3(CCOCC3)C2)cc1NS(=O)(=O)C(F)(F)F [Compound 177] | 0 | 80 | 70 | 0
22 | Cc1cc(C)c(N(S(=O)(=O)C(F)(F)F)S(=O)(=O)C(F)(F)F)cc1C1=NOC2(CCOCC2)C1 [Compound 178] | 0 | 90 | 20 | 0
23 | C#CCN(C)C(=O)c1cc(NS(=O)(=O)C(F)(F)F)c(C)c(F)c1C [Compound 179] | 0 | 60 | 60 | 0
24 | Cc1cc(C(F)(F)F)c(C(=O)N2CCCCC2)cc1NS(=O)(=O)C(F)(F)F [Compound 180] | 0 | 80 | 35 | 0
25 | Cc1cc(Cl)c(C2=NOC(C)(C)C2)cc1NS(=O)(=O)C(F)(F)F [Compound 183] | 25 | 60 | 20 | 0
26 | Cc1cc(Cl)c(C2=NOC(C)(C)C2)cc1N(S(=O)(=O)C(F)(F)F)S(=O)(=O)C(F)(F)F [Compound 184] | 25 | 45 | 25 | 0
27 | Cc1cc(Cl)c(C2=NOC3(CCCC3)C2)cc1NS(=O)(=O)C(F)(F)F [Compound 185] | 25 | 75 | 10 | 0
28 | Cc1cc(Cl)c(C2=NOC3(CCCC3)C2)cc1N(S(=O)(=O)C(F)(F)F)S(=O)(=O)C(F)(F)F [Compound 186] | 0 | 0 | 0 | 0
29 | C#CCN(C)C(=O)c1cc(NS(=O)(=O)C(F)(F)F)c(C)cc1C [Compound 189] | 45 | 85 | 75 | 15
30 | Cc1c(NS(=O)(=O)C(F)(F)F)cc(C(=O)N2CCCCC2)c(C)c1F [Compound 191] | 0 | 75 | 75 | 0
31 | Cc1cc(C)c(C(=O)N2CCC3(CC2)OCCCO3)cc1NS(=O)(=O)C(F)(F)F [Compound 194] | 0 | 0 | 0 | 0
32 | Cc1cc(C)c(C(=O)N2CCC3(CCCCC3)CC2)cc1NS(=O)(=O)C(F)(F)F [Compound 195] | 0 | 0 | 0 | 0
33 | Cc1cc(C)c(N(S(=O)(=O)C(F)(F)F)S(=O)(=O)C(F)(F)F)cc1C1=NOC2(CCC2)C1 [Compound 196] | 0 | 90 | 75 | 0
34 | Cc1cc(C)c(N(S(=O)(=O)C(F)(F)F)S(=O)(=O)C(F)(F)F)cc1C1=NOC2(CCCCC2)C1 [Compound 198] | 70 | 98 | 90 | 0
35 | Cc1cc(Cl)c(N(S(=O)(=O)C(F)(F)F)S(=O)(=O)C(F)(F)F)cc1C(=O)N1CCC(Cl)CC1 [Compound 200] | 0 | 0 | 0 | 0
36 | Cc1cc(Cl)c(NS(=O)(=O)C(F)(F)F)cc1C(=O)N1CCC(F)CC1 [Compound 201] | 0 | 75 | 75 | 0
37 | Cc1cc(C)c(C(=O)N2CCC(F)(F)C2)cc1NS(=O)(=O)C(F)(F)F [Compound 202] | 0 | 90 | 75 | 0
38 | Cc1cc(Cl)c(NS(=O)(=O)C(F)(F)F)cc1C1=NOC(C)(C)C1 [Compound 203] | 25 | 80 | 30 | 20
